Assay results from PMC6975528.
Results are given in words; binding and its absence hold for the method and conditions named. Binding seen in cells or lysates may run through a third protein. Some entries that bind do so weakly or less than the wild type. For some of these results: Sequences can lack the tags named with a protein.

Protein sequences, listed by entry. Tags and fused reporters are not part of them.
UniProt Q8N884: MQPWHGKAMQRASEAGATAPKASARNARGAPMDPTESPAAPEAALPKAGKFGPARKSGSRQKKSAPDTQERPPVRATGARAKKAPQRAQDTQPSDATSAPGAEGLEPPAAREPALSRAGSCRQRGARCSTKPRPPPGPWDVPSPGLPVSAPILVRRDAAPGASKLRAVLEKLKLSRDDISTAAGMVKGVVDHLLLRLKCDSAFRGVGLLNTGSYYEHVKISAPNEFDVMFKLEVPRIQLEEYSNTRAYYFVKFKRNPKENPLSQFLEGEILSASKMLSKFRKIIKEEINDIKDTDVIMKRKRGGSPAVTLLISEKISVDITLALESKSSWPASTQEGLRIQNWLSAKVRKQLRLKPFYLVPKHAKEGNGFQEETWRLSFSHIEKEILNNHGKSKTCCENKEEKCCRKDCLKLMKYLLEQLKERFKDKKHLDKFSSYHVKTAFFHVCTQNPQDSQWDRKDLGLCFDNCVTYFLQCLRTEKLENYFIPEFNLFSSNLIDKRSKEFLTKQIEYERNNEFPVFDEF
UniProt Q86WV6: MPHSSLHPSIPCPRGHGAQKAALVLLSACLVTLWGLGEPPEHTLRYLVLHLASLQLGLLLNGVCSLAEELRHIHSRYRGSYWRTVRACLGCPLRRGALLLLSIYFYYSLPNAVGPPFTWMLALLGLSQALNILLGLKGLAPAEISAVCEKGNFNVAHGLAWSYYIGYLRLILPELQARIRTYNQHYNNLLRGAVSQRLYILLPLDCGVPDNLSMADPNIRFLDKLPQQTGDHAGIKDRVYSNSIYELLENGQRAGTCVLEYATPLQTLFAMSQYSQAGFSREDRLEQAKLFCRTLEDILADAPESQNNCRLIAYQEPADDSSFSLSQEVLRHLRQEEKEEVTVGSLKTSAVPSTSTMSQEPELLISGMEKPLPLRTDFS

T1: interferon regulatory factor 3 (IRF3), expressed by transient transfection in HEK293T cells (UniProt Q14653)
T1 sequence: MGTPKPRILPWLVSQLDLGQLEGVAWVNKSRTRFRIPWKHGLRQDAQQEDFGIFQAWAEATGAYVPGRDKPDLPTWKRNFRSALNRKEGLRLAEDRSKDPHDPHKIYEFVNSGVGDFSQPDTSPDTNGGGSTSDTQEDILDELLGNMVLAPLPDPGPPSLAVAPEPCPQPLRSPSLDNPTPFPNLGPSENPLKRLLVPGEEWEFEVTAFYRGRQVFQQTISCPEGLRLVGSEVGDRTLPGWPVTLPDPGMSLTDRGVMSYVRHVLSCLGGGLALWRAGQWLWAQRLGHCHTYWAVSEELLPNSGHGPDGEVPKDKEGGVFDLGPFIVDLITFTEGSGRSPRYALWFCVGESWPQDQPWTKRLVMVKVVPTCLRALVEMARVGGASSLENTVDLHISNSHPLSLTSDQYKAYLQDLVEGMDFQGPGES

T2: IKKε, expressed by transient transfection in HEK293T cells (UniProt Q14164)
T2 sequence: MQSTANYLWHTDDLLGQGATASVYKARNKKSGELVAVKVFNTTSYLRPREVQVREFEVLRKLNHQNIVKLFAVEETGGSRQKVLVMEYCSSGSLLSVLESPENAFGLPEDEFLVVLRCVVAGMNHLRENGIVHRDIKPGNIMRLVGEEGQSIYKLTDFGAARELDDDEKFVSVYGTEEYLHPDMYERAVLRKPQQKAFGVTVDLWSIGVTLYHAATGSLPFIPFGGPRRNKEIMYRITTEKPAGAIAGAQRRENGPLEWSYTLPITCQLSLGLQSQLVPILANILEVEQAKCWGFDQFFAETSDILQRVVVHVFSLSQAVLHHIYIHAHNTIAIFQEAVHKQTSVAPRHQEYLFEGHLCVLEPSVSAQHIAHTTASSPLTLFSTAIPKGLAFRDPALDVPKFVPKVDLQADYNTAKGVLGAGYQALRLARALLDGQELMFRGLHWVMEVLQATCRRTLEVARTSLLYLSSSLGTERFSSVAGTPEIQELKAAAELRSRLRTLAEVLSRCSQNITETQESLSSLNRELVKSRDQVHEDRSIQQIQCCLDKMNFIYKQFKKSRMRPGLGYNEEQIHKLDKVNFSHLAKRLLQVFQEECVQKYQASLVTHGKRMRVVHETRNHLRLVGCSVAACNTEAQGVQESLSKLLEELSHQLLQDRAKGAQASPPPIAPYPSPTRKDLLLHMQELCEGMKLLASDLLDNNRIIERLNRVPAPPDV

T3: TANK-binding kinase 1 (TBK1), expressed by transient transfection in HEK293T cells (UniProt Q9UHD2)
T3 sequence: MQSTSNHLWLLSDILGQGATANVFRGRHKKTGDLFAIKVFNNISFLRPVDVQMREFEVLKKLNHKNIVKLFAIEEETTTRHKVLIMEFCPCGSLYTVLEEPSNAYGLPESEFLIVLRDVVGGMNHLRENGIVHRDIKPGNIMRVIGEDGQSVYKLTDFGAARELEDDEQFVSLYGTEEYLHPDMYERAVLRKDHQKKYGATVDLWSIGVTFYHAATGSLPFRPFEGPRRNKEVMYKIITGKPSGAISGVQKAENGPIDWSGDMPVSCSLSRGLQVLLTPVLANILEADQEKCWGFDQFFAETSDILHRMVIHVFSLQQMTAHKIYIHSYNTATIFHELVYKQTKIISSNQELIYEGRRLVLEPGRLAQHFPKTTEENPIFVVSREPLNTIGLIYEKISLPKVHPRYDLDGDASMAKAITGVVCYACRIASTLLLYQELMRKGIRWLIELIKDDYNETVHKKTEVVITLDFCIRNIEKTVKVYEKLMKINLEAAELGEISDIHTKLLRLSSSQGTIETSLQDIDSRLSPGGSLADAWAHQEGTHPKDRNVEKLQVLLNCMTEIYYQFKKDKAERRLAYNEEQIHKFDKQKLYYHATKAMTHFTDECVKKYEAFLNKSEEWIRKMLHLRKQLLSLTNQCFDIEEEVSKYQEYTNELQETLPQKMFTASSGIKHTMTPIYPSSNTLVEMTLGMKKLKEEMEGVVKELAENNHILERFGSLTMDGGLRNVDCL

T4: endogenous MITA of immortalized mouse lung fibroblasts (mouse (endogenous in iMLFs)) (UniProt Q3TBT3)
T4 sequence: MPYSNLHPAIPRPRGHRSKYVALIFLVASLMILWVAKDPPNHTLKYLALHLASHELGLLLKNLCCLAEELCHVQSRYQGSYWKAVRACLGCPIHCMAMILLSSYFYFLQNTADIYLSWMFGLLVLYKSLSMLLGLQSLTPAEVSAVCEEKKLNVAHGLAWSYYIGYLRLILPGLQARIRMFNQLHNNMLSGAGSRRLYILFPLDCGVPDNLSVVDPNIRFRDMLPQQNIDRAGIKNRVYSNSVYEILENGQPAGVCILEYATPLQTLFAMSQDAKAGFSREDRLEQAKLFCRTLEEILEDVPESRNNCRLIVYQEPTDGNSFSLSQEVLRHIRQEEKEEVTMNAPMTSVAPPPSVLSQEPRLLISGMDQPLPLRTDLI


What was measured:
[1] = target: cyclic GMP-AMP synthase (cGAS), expressed by transient transfection in HEK293T cells (UniProt Q8N884); assay: co-IP; HEK293T cells transfected with the indicated plasmids (5 μg each) for 24 h; NP-40 lysis buffer (20 mM Tris-HCl pH 7.4, 150 mM NaCl, 1 mM EDTA, 1% NP-40); Protein G Sepharose, 4°C; washes with lysis buffer containing 0.5 M NaCl
[2] = target: Mediator of IRF3 activation (MITA), expressed by transient transfection in HEK293T cells (UniProt Q86WV6); assay: as above
[3] = target: T1, interferon regulatory factor 3 (IRF3), expressed by transient transfection in HEK293T cells; assay: as above
[4] = target: T2, IKKε, expressed by transient transfection in HEK293T cells; assay: as above
[5] = target: T3, TANK-binding kinase 1 (TBK1), expressed by transient transfection in HEK293T cells; assay: as above
[6] = target: T4, endogenous MITA of immortalized mouse lung fibroblasts (mouse (endogenous in iMLFs)); assay: co-IP; membraneous fraction (20000 g pellet) of Usp44-/- iMLFs reconstituted with USP44-Flag, infected with HSV-1 (MOI = 1) for the indicated times; co-immunoprecipitation and immunoblot
[7] = target: T4, endogenous MITA of immortalized mouse lung fibroblasts (mouse (endogenous in iMLFs)); assay: co-IP; Usp44-/- iMLFs reconstituted with USP44-Flag, infected with HSV-1 (MOI = 1) for the indicated times in the presence of MG132 (10 μM); immunoprecipitation with anti-MITA, immunoblot

Binder | binding [1] | binding [2] | binding [3] | binding [4] | binding [5] | binding [6] | binding [7]
ubiquitin-specific protease 44 (USP44), expressed by transient transfection in HEK293T cells (enzyme, UniProt Q9H0E7 1-712) MLAMDTCKHVGQLQLAQDHSSLNPQKWHCVDCNTTESIWACLSCSHVACGRYIEEHALKHFQESSHPVALEVNEMYVFCYLCDDYVLNDNTTGDLKLLRRTLSAIKSQNYHCTTRSGRFLRSMGTGDDSYFLHDGAQSLLQSEDQLYTALWHRRRILMGKIFRTWFEQSPIGRKKQEEPFQEKIVVKREVKKRRQELEYQVKAELESMPPRKSLRLQGLAQSTIIEIVSVQVPAQTPASPAKDKVLSTSENEISQKVSDSSVKRRPIVTPGVTGLRNLGNTCYMNSVLQVLSHLLIFRQCFLKLDLNQWLAMTASEKTRSCKHPPVTDTVVYQMNECQEKDTGFVCSRQSSLSSGLSGGASKGRKMELIQPKEPTSQYISLCHELHTLFQVMWSGKWALVSPFAMLHSVWRLIPAFRGYAQQDAQEFLCELLDKIQRELETTGTSLPALIPTSQRKLIKQVLNVVNNIFHGQLLSQVTCLACDNKSNTIEPFWDLSLEFPERYQCSGKDIASQPCLVTEMLAKFTETEALEGKIYVCDQCNSKRRRFSSKPVVLTEAQKQLMICHLPQVLRLHLKRFRWSGRNNREKIGVHVGFEEILNMEPYCCRETLKSLRPECFIYDLSAVVMHHGKGFGSGHYTAYCYNSEGGFWVHCNDSKLSMCTMDEVCKAQAYILFYTQRVTENGHSKLLPPELLLGSQHPNEDADTSSNEILS | no binding | binds | no binding | no binding | no binding |  | 
Flag-tagged USP44 (USP44-Flag) reconstituted in immortalized Usp44-/- MLF cells (enzyme, UniProt Q9H0E7 1-712) MLAMDTCKHVGQLQLAQDHSSLNPQKWHCVDCNTTESIWACLSCSHVACGRYIEEHALKHFQESSHPVALEVNEMYVFCYLCDDYVLNDNTTGDLKLLRRTLSAIKSQNYHCTTRSGRFLRSMGTGDDSYFLHDGAQSLLQSEDQLYTALWHRRRILMGKIFRTWFEQSPIGRKKQEEPFQEKIVVKREVKKRRQELEYQVKAELESMPPRKSLRLQGLAQSTIIEIVSVQVPAQTPASPAKDKVLSTSENEISQKVSDSSVKRRPIVTPGVTGLRNLGNTCYMNSVLQVLSHLLIFRQCFLKLDLNQWLAMTASEKTRSCKHPPVTDTVVYQMNECQEKDTGFVCSRQSSLSSGLSGGASKGRKMELIQPKEPTSQYISLCHELHTLFQVMWSGKWALVSPFAMLHSVWRLIPAFRGYAQQDAQEFLCELLDKIQRELETTGTSLPALIPTSQRKLIKQVLNVVNNIFHGQLLSQVTCLACDNKSNTIEPFWDLSLEFPERYQCSGKDIASQPCLVTEMLAKFTETEALEGKIYVCDQCNSKRRRFSSKPVVLTEAQKQLMICHLPQVLRLHLKRFRWSGRNNREKIGVHVGFEEILNMEPYCCRETLKSLRPECFIYDLSAVVMHHGKGFGSGHYTAYCYNSEGGFWVHCNDSKLSMCTMDEVCKAQAYILFYTQRVTENGHSKLLPPELLLGSQHPNEDADTSSNEILS |  |  |  |  |  | binds | binds
